# Reference: the supplement of paper PMC12217912
# The other results are listed elsewhere or left out. Sequences were assembled here from the parent chain. Inactive controls read about 0.05.
# B1: TEV protease; numbered along this chain (parent)
# chain: MGESLFKGPRDYNPISSSICHLTNESDGHTTSLYGIGFGPFIITNKHLFRRNNGTLVVQSLHGVFKVKDTTTLQQHLVDGRDMIIIRMPKDFPPFPQKLKFREPQREERICLVTTNFQTKSMSSMVSDTSCTFPSGDGIFWKHWIQTKDGQCGSPLVSTRDGFIVGIHSASNFTNTNNYFTSVPKNFMELLTNQEAQQWVSGWRLNADSVLWGGHKVFMVKPEEPFQPVKEATQL
# Variants of: B1
# Test: raw area under fraction-flipped curve 0-4 h after induction (AUC4h, not background-subtracted), DNA-recorder readout of cleavage of the substrate (dimensionless); higher = more cleavage of the substrate by the protease variant
# Settings: temperature: 34 °C; time window: 0-4 h after rhamnose induction
# Experimental: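 In vivo DNA recorder in E. coli TOP10(DE3) ΔrhaA at 34 °C. Each TEVp single-site mutant (parent TEVp 0) is paired with a single-site variant of the 7-mer TEVs (canonical ENLYFQ|S). The substrate sits between flexible linkers in a Bxb1-sfGFP-TEVs-SsrA fusion, so cleavage stabilises Bxb1 and speeds flipping of a recombination array, read by NGS. The value is the raw area under the fraction-flipped curve over 0-4 h after rhamnose induction (AUC4h), with ≥20 reads per time point. It is not background-subtracted; inactive controls average about 0.047.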
# 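Further: Bxb1 expression induced with 0.2% (w/v) L-rhamnose at OD600 near 0.5, cultures sampled hourly, flipped fraction per protease–substrate barcode pair counted by paired-end Illumina sequencing.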
Variant,area with substrate ENLDFQS,area with substrate ENLFFQS,area with substrate ENLKFQS,area with substrate ENLLFQS,area with substrate ENLMFQS,area with substrate ENLPFQS,area with substrate ENLRFQS,area with substrate ENLWFQS,area with substrate ENLEFQS,area with substrate ENLGFQS,area with substrate ENLHFQS,area with substrate ENLIFQS,area with substrate ENLNFQS,area with substrate ENLQFQS,area with substrate ENLSFQS,area with substrate ENLVFQS,area with substrate ENLTFQS
T147F,0.0602,0.0701,0.0664,0.0442,0.0784,0.0768,0.0637,0.0573,,,,,,,,,
V67S,0.0627,0.0625,0.0656,0.0441,0.0637,,0.055,0.0727,0.0566,0.0565,0.062,0.0838,0.0627,0.0623,0.0636,0.0881,
T147R,0.045,0.0607,0.0616,0.0652,0.0602,,0.0549,,0.0491,,0.0519,,0.0654,0.0629,0.0577,,
V220E,0.0637,0.0895,0.0697,,,0.0489,0.0874,,,0.0637,0.062,0.0825,0.0593,0.0365,0.0607,,0.0595
F140W,0.0435,,0.0552,,,,0.0619,,,,,,0.066,,,,
A170Y,0.0371,,,0.0646,,0.0596,,,,,0.0563,0.0492,0.0634,,0.0685,,
N45P,0.0692,,0.061,0.0524,,0.05,,,,,0.0797,,0.0662,,0.0641,,
L73E,0.0598,0.0552,0.0516,,0.0555,0.049,,,,,0.0278,0.0617,0.05,0.0279,,,
F173E,0.0572,0.0992,0.0698,0.0711,,0.0414,,,,0.0691,,,0.0674,0.0774,0.0579,,
